# Data taken from PubChem BioAssay AID686970 (National Center for Advancing Translational Sciences (NCATS), 2013).
# Hit rate of the full screen: of about 360,000 compounds, about 6,000 (1.7%) were called active. The shares of active, inactive and inconclusive entries below differ from those in the screen. The call rests on the fitted dose curve; in most records, active means well fitted cell-killing curve with a large enough effect; inconclusive means small, poorly fitted or top-dose-only effect, or effect the other way; inactive means flat fitted curve, though single readings scatter. No potency is given beside an inconclusive call; the fits are too rough.
# Test: qHTS for induction of synthetic lethality in tumor cells producing 2HG: qHTS for the HT-1080-NT fibrosarcoma cell line;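 further: NT is the 2HG producing partner of a matched IDH1 knockdown line; nearly all actives have a fitted effect of over 55% in size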;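 on activity, negative = less viability: 0% = DMSO-treated cells and -100% = media-only wells without cells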
# Details: HT-1080-NT fibrosarcoma viability, CellTiter-Glo ATP luminescence, 48 h; activity, negative = less viability: at 46.1 µM (top of the series) unless noted
# Procedure, shortened: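 Luminescent CellTiter-Glo readout after 48 hours of compound exposure at 37 degrees C defined viability of HT-1080-NT cells. Activity was normalized to DMSO wells and cell-free media wells; concentration-response curves were fitted and assigned curve classes.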
# Potency means the concentration at half of the fitted maximal effect; tags describe the fitted curve by direction and shape.
Structure (SMILES),Potency,"activity, negative = less viability"
C/C(=N\NC(=O)c1cccc(N/N=C(\C)c2ccccc2)c1)c1ccccc1,"inconclusive [cytotoxic, single point]",
Cc1cccc(CSc2nc3c(c(=O)n2C)SCC3)c1,,inconclusive: -34.4% [cytotoxic]
CCCCOc1ccc(C(=O)NCC(=O)OCCCOC(=O)CNC(=O)c2ccc(OCCCC)cc2)cc1,,inactive: 13.6%
COC(=O)c1ccc(NC(=O)CNC(=O)C2CCCCC2)cc1,"inconclusive [cytotoxic, full curve]",
BrC(=C\c1ccccc1)/C=N/Nc1nc(N2CCOCC2)nc(N2CCOCC2)n1,"inconclusive [cytotoxic, single point]",
COC(=O)C1(C)NC(c2ccccc2C)C2C(=O)N(c3ccc(F)cc3)C(=O)C21 (centres undefined),,inactive: 13.5%
O=C(CSc1cc(Cl)ccc1Cl)NC1CCCC1,,inactive: -11.3%
COc1ccc(N2CCN(C(=O)c3ccc(CS(=O)c4cccc(C)c4)o3)CC2)cc1 (centres undefined),"inconclusive [cytotoxic, partial curve]",
COc1ccc(N(C(=O)/C=C/c2ccccc2)C2=CC3CCC(C2)N3C)cc1 (centres undefined),"inconclusive [cytotoxic, partial curve]",
Cc1ccccc1CN(C)C(=O)COC(=O)CSc1ccc([N+](=O)[O-])cc1,,inactive: -0.619%
COCCn1nnnc1CN(Cc1cc2cc(OC)c(OC)cc2[nH]c1=O)C1CCCC1,,inactive: -12.2%
COc1cc2c(cc1OC)CN(c1ccc([N+](=O)[O-])cc1Cl)CC2,"inconclusive [cytotoxic, single point]",
CCNC(=S)NNC(=O)c1ccccc1OC(F)F,,inactive: 3.63%
CCN(Cc1ccc(O)cc1)CC1CCCN(CCc2cccc(F)c2)C1 (centres undefined),"inconclusive [cytotoxic, single point]",
COc1cc(/C=N/NC(=O)C2COc3ccccc3O2)ccc1O (centres undefined),,inactive: -2.59%
CCCC(=O)Nc1sc(-c2ccccc2)c(-c2ccccc2)c1C(=O)O,,inactive: -23.3%
O=C(Nc1ccc(F)cc1)N1CCN(c2nc3ccccc3s2)CC1,"inconclusive [cytotoxic, single point]",
CC1=NN(c2cccc(C(=O)O)c2)C(=O)/C1=C\C=C/c1ccccc1,"inconclusive [cytotoxic, full curve]",
Nc1c(N(CCC2=CCCCC2)C(=O)COc2ccc(F)cc2Cl)c(=O)[nH]c(=O)n1Cc1ccccc1,active: 18.4 µM,
Cc1nc(NC(=O)c2ccco2)sc1-c1csc(Nc2ccc(Cl)cc2Cl)n1,"inconclusive [cytotoxic, single point]",
Cc1ccc(C(=O)OCC(=O)Nc2c(C)n(C)n(-c3ccccc3)c2=O)cc1[N+](=O)[O-],,inactive: 2.84%
CCCCOc1ccccc1C(=O)NNC(=S)NC(=O)c1ccccc1[N+](=O)[O-],"inconclusive [cytotoxic, full curve]",

Structure (SMILES),Potency,"activity, negative = less viability"
CC(C)c1ccc(NC(=O)C2Cc3c(-c4ccc(Cl)cc4)ccnc3O2)cc1 (centres undefined),"inconclusive [cytotoxic, single point]",
COc1ccc(C(=O)NN(c2ccccc2)c2ccccc2)cc1,,inactive: 7.39%
CCn1cc(CCC(=O)NC2CCCC2)c2ccccc21,"inconclusive [rising, partial curve, poor fit]",
Cc1ccc(S(=O)(=O)c2c(C)nn(C(C)(C)C)c2OC(=O)c2ccc(Br)o2)cc1,"inconclusive [cytotoxic, partial curve]",
CC(C)C(=O)N1CCN(c2ccc([N+](=O)[O-])c(NC(C)c3ccccc3)c2)CC1 (centres undefined),"inconclusive [cytotoxic, single point]",
N/C(=N\OC(=O)c1cc(Cl)ccc1Cl)c1ccccn1,,inactive: -1.24%
O=C(COC(=O)/C=C/c1ccc(Cl)cc1)NC(=O)NCc1ccccc1,"inconclusive [cytotoxic, single point]",
Clc1ccc(Cl)c(OCCCCNCc2ccccc2)c1,"inconclusive [cytotoxic, partial curve]",
Cc1ccc(C(=O)Nc2cccc(C(=O)NCc3ccccc3)c2)cc1,"inconclusive [cytotoxic, partial curve]",
Cc1cc(C)cc(NC(=O)[C@H](Cc2c[nH]c3ccccc23)NC(=O)[C@@H]2Cc3ccccc3CN2)c1,"inconclusive [cytotoxic, single point]",
O=C1Nc2ccc(Br)cc2/C1=C/C(=O)c1ccc2c(c1)OCO2,"inconclusive [cytotoxic, single point]",
CC(=O)C1=CCC(c2ccccc2)N(S(C)(=O)=O)C1 (centres undefined),,inactive: 18.6%
Cc1ccc(C(C(=O)NC2CCCC2)N(Cc2ccc(F)cc2)C(=O)c2snc(C(N)=O)c2N)o1 (centres undefined),"inconclusive [cytotoxic, single point]",
O=C(Cn1cnc([N+](=O)[O-])c1)Nc1cc(Oc2ccc(Cl)cc2Cl)cc([N+](=O)[O-])c1,active: 20.6 µM,
COc1cc(/C=C/C(=O)NCCN2CCOCC2)cc(OC)c1OC,,inactive: 17.9%
C=CCC(Nc1ccccc1)C12C=CC(O1)C(C(=O)OC)=C2C(=O)OC (centres undefined),"inconclusive [cytotoxic, single point]",
O=C(NCc1ccccc1)N1CCN(c2ccc(Cl)c(Cl)c2)CC1,"inconclusive [cytotoxic, single point]",
COc1cccc(-c2sc3cc(OC)c(OC)cc3c2-c2ccc(OCCN3CCCCC3)cc2)c1,"inconclusive [cytotoxic, single point]",
O=c1[nH]c(C2CCN(S(=O)(=O)c3ccc(C(F)(F)F)cc3)CC2)nc2c1nnn2Cc1cccc(F)c1,"inconclusive [cytotoxic, partial curve]",
CC1Cc2ccccc2N1C(=O)CSc1nn2c(=O)c(C(C)(C)C)nnc2s1 (centres undefined),"inconclusive [cytotoxic, single point]",
CCN(CC(=O)NC(=O)NCc1ccccc1)Cc1ccccc1,,inactive: -9.56%
COC(=O)c1ccc(CSc2nnnn2-c2ccc(C)cc2C)o1,"inconclusive [cytotoxic, single point]",
